{"source": "the supplement of paper PMC10126150", "note": "Sequences with one replicate were seen in a single cluster, so their values are uncertain.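 Note: ATP exposure 15 min at 22 °C before imaging.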", "data": [{"test_system": "ATP", "assay": "switch fluorescence ratio, 500 uM ATP over buffer (Cy3 cluster intensity, sum of 5 cycles each) (fold (ratio)); higher = stronger signal-on switching upon ATP binding; sequences stand for … in TCGTCGGCAGCGTCAGATGTGTATAAGAGACAGTTTTTTTTTTTTTTTTTTTTTTTTT…TC", "details": "aptamer strand: ATP DNA aptamer (quencher-CACCTGGGGGAGTATTGCGGAGGAAGG + anchor), 100 nM annealed; ATP concentration: 500 uM; one replicate", "outline": "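The fluorescence ratio divides summed target-cycle Cy3 intensity by summed buffer-cycle Cy3 intensity for each cluster and is averaged per switch-domain sequence. Cy3-labelled switching-strand clusters on a modified Illumina MiSeq flow-cell were annealed to 100 nM quencher-labelled ATP aptamer, then imaged in selection buffer and again after 15 min with 500 uM ATP at 22 °C. Five such cycles were run, with NaOH stripping and re-annealing between them, and clusters outside 100-1000 RFU were excluded.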", "values": [{"sequence": "TAGGCTGGAA", "switch fluorescence ratio": 0.997}, {"sequence": "TAGGGACATT", "switch fluorescence ratio": 1.03}, {"sequence": "TAGGGAGCAG", "switch fluorescence ratio": 1.34}, {"sequence": "TAGGGAGTGC", "switch fluorescence ratio": 1}, {"sequence": "TAGGGAGTTT", "switch fluorescence ratio": 1.06}, {"sequence": "TAGGGATGAC", "switch fluorescence ratio": 1.02}, {"sequence": "TAGGGCAACA", "switch fluorescence ratio": 1.01}, {"sequence": "TAGGGCTAAG", "switch fluorescence ratio": 1.04}, {"sequence": "TAGGGCTGCC", "switch fluorescence ratio": 1.01}, {"sequence": "TAGGGGAT", "switch fluorescence ratio": 0.975}, {"sequence": "TAGGGGCATA", "switch fluorescence ratio": 1.04}, {"sequence": "TAGGGTACTG", "switch fluorescence ratio": 1.1}, {"sequence": "TAGGGTGAGG", "switch fluorescence ratio": 1.01}, {"sequence": "TAGGGTGGTA", "switch fluorescence ratio": 0.995}, {"sequence": "TAGGTAAAAG", "switch fluorescence ratio": 0.946}, {"sequence": "TAGGTACTG", "switch fluorescence ratio": 1.02}, {"sequence": "TAGGTCAGTG", "switch fluorescence ratio": 1.05}, {"sequence": "TAGGTGAGTG", "switch fluorescence ratio": 1.03}, {"sequence": "TAGGTTAT", "switch fluorescence ratio": 0.974}, {"sequence": "TAGGTTCAAG", "switch fluorescence ratio": 1.01}, {"sequence": "TAGTAACATT", "switch fluorescence ratio": 1.04}, {"sequence": "TAGTAATTT", "switch fluorescence ratio": 0.975}, {"sequence": "TAGTACATTG", "switch fluorescence ratio": 0.979}, {"sequence": "TAGTAGCTGC", "switch fluorescence ratio": 1.04}, {"sequence": "TAGTATAGCG", "switch fluorescence ratio": 0.926}, {"sequence": "TAGTATCCTG", "switch fluorescence ratio": 0.943}, {"sequence": "TAGTATGG", "switch fluorescence ratio": 0.974}, {"sequence": "TAGTATTACA", "switch fluorescence ratio": 1.04}, {"sequence": "TAGTCAACCT", "switch fluorescence ratio": 1.51}, {"sequence": "TAGTCCACGG", "switch fluorescence ratio": 1.03}, {"sequence": "TAGTCCCGTT", "switch fluorescence ratio": 0.95}, {"sequence": "TAGTCCGATC", "switch fluorescence ratio": 1.06}, {"sequence": "TAGTCGTTGG", "switch fluorescence ratio": 1.01}, {"sequence": "TAGTCTCCTT", "switch fluorescence ratio": 1.01}, {"sequence": "TAGTCTCTTA", "switch fluorescence ratio": 0.989}, {"sequence": "TAGTCTTTT", "switch fluorescence ratio": 0.982}, {"sequence": "TAGTGAAGG", "switch fluorescence ratio": 0.974}, {"sequence": "TAGTGACGA", "switch fluorescence ratio": 1.04}, {"sequence": "TAGTGAGGGC", "switch fluorescence ratio": 0.94}, {"sequence": "TAGTGATAGT", "switch fluorescence ratio": 1.03}, {"sequence": "TAGTGCATTG", "switch fluorescence ratio": 0.976}, {"sequence": "TAGTGCGAAT", "switch fluorescence ratio": 1.01}, {"sequence": "TAGTGCGCTT", "switch fluorescence ratio": 1.01}, {"sequence": "TAGTGGGCTA", "switch fluorescence ratio": 1}, {"sequence": "TAGTGGGTAA", "switch fluorescence ratio": 1.01}, {"sequence": "TAGTGGTCCC", "switch fluorescence ratio": 0.981}, {"sequence": "TAGTGGTCGG", "switch fluorescence ratio": 0.968}, {"sequence": "TAGTGTCTGC", "switch fluorescence ratio": 1}, {"sequence": "TAGTTAACC", "switch fluorescence ratio": 0.972}, {"sequence": "TAGTTACGAG", "switch fluorescence ratio": 1.03}, {"sequence": "TAGTTCAGAT", "switch fluorescence ratio": 1}, {"sequence": "TAGTTCCGGC", "switch fluorescence ratio": 1.01}, {"sequence": "TAGTTCCGTT", "switch fluorescence ratio": 1.03}, {"sequence": "TAGTTCCTTT", "switch fluorescence ratio": 1.01}, {"sequence": "TAGTTCGGCC", "switch fluorescence ratio": 0.967}, {"sequence": "TAGTTCGGCT", "switch fluorescence ratio": 0.915}, {"sequence": "TAGTTCTCCG", "switch fluorescence ratio": 1.02}, {"sequence": "TAGTTCTTA", "switch fluorescence ratio": 0.993}, {"sequence": "TAGTTGGTCA", "switch fluorescence ratio": 0.976}, {"sequence": "TAGTTTTGG", "switch fluorescence ratio": 0.989}, {"sequence": "TATAAAAACA", "switch fluorescence ratio": 1.03}, {"sequence": "TATAAAAATG", "switch fluorescence ratio": 1.01}, {"sequence": "TATAAACGAG", "switch fluorescence ratio": 1.02}, {"sequence": "TATAAATCAT", "switch fluorescence ratio": 1.02}, {"sequence": "TATAAATTTC", "switch fluorescence ratio": 1.02}, {"sequence": "TATAACGCGG", "switch fluorescence ratio": 1.02}, {"sequence": "TATAAGGGT", "switch fluorescence ratio": 0.968}, {"sequence": "TATAATGCTT", "switch fluorescence ratio": 1}, {"sequence": "TATAATGTGA", "switch fluorescence ratio": 1.01}, {"sequence": "TATACATATG", "switch fluorescence ratio": 0.981}, {"sequence": "TATACATCAT", "switch fluorescence ratio": 1.04}, {"sequence": "TATACCCTGC", "switch fluorescence ratio": 1.05}, {"sequence": "TATACGGCCC", "switch fluorescence ratio": 0.973}, {"sequence": "TATACTCACA", "switch fluorescence ratio": 1.35}, {"sequence": "TATACTGGAA", "switch fluorescence ratio": 1.02}, {"sequence": "TATACTGTTT", "switch fluorescence ratio": 0.962}, {"sequence": "TATAGAGAGC", "switch fluorescence ratio": 0.972}, {"sequence": "TATAGAGCGT", "switch fluorescence ratio": 1.03}, {"sequence": "TATAGAGTG", "switch fluorescence ratio": 0.988}, {"sequence": "TATAGATCTG", "switch fluorescence ratio": 1.01}, {"sequence": "TATAGATGGT", "switch fluorescence ratio": 0.96}, {"sequence": "TATAGCATCA", "switch fluorescence ratio": 1.01}, {"sequence": "TATAGCCCTG", "switch fluorescence ratio": 1.01}, {"sequence": "TATAGCCTAT", "switch fluorescence ratio": 0.976}, {"sequence": "TATAGGAGTC", "switch fluorescence ratio": 0.975}, {"sequence": "TATAGGGGAG", "switch fluorescence ratio": 0.994}, {"sequence": "TATAGTCCTT", "switch fluorescence ratio": 0.993}, {"sequence": "TATAGTTAGC", "switch fluorescence ratio": 0.972}, {"sequence": "TATAGTTAT", "switch fluorescence ratio": 0.997}, {"sequence": "TATAGTTATG", "switch fluorescence ratio": 1.01}, {"sequence": "TATAGTTGAC", "switch fluorescence ratio": 1.03}, {"sequence": "TATAGTTTTC", "switch fluorescence ratio": 1.02}, {"sequence": "TATATCACGT", "switch fluorescence ratio": 1.05}, {"sequence": "TATATCATAC", "switch fluorescence ratio": 1.05}, {"sequence": "TATATCTCAT", "switch fluorescence ratio": 0.962}, {"sequence": "TATATCTCTT", "switch fluorescence ratio": 1.02}, {"sequence": "TATATCTT", "switch fluorescence ratio": 1.01}, {"sequence": "TATATCTTAG", "switch fluorescence ratio": 1.04}, {"sequence": "TATATGCCGA", "switch fluorescence ratio": 0.967}, {"sequence": "TATATGGTT", "switch fluorescence ratio": 0.985}, {"sequence": "TATATGTTCG", "switch fluorescence ratio": 1.07}, {"sequence": "TATATTATCC", "switch fluorescence ratio": 0.99}, {"sequence": "TATATTCATG", "switch fluorescence ratio": 1.04}, {"sequence": "TATATTTAAC", "switch fluorescence ratio": 1.01}, {"sequence": "TATCAATTGG", "switch fluorescence ratio": 1.01}, {"sequence": "TATCACCGTG", "switch fluorescence ratio": 1.02}, {"sequence": "TATCACGGGG", "switch fluorescence ratio": 1.03}, {"sequence": "TATCAGCACT", "switch fluorescence ratio": 1.06}, {"sequence": "TATCAGCTTA", "switch fluorescence ratio": 0.984}, {"sequence": "TATCCAATGT", "switch fluorescence ratio": 1.02}, {"sequence": "TATCCACGTA", "switch fluorescence ratio": 1.17}, {"sequence": "TATCCCATGG", "switch fluorescence ratio": 1.03}, {"sequence": "TATCCCCGTT", "switch fluorescence ratio": 1.02}, {"sequence": "TATCCCGCT", "switch fluorescence ratio": 1.11}, {"sequence": "TATCCCTTCA", "switch fluorescence ratio": 1.28}, {"sequence": "TATCCTTGAC", "switch fluorescence ratio": 0.989}, {"sequence": "TATCGAACAG", "switch fluorescence ratio": 1.04}, {"sequence": "TATCGATTAC", "switch fluorescence ratio": 1.03}, {"sequence": "TATCGCACGG", "switch fluorescence ratio": 1.29}, {"sequence": "TATCGCCTGT", "switch fluorescence ratio": 1.06}, {"sequence": "TATCGGCGGT", "switch fluorescence ratio": 1}, {"sequence": "TATCGTGTC", "switch fluorescence ratio": 0.934}, {"sequence": "TATCGTTAGG", "switch fluorescence ratio": 0.987}, {"sequence": "TATCTACGGT", "switch fluorescence ratio": 1.08}, {"sequence": "TATCTAGAAA", "switch fluorescence ratio": 1}, {"sequence": "TATCTCAGGA", "switch fluorescence ratio": 0.997}, {"sequence": "TATCTCAGTT", "switch fluorescence ratio": 0.977}, {"sequence": "TATCTCATAA", "switch fluorescence ratio": 0.991}, {"sequence": "TATCTGAACC", "switch fluorescence ratio": 1.04}, {"sequence": "TATCTGATA", "switch fluorescence ratio": 0.986}, {"sequence": "TATCTGCG", "switch fluorescence ratio": 1.03}, {"sequence": "TATCTGCTTC", "switch fluorescence ratio": 1.08}, {"sequence": "TATCTTGAAG", "switch fluorescence ratio": 1.03}, {"sequence": "TATCTTTTGA", "switch fluorescence ratio": 0.954}, {"sequence": "TATGAAACGG", "switch fluorescence ratio": 1.01}, {"sequence": "TATGAAGTTT", "switch fluorescence ratio": 1}, {"sequence": "TATGACCGCG", "switch fluorescence ratio": 0.996}, {"sequence": "TATGACGCTA", "switch fluorescence ratio": 1.71}, {"sequence": "TATGAGCCCA", "switch fluorescence ratio": 0.981}, {"sequence": "TATGAGGGAA", "switch fluorescence ratio": 1.01}, {"sequence": "TATGAGT", "switch fluorescence ratio": 1.02}, {"sequence": "TATGAGTCCC", "switch fluorescence ratio": 0.969}, {"sequence": "TATGATGGAT", "switch fluorescence ratio": 1.04}, {"sequence": "TATGATTGCC", "switch fluorescence ratio": 1.02}, {"sequence": "TATGCAACGC", "switch fluorescence ratio": 1.14}, {"sequence": "TATGCAACTG", "switch fluorescence ratio": 0.997}, {"sequence": "TATGCACTGT", "switch fluorescence ratio": 1.07}, {"sequence": "TATGCAGTAT", "switch fluorescence ratio": 1.1}, {"sequence": "TATGCAGTCG", "switch fluorescence ratio": 0.983}, {"sequence": "TATGCATCGT", "switch fluorescence ratio": 0.946}, {"sequence": "TATGCCCAGG", "switch fluorescence ratio": 3.55}, {"sequence": "TATGCGAATG", "switch fluorescence ratio": 0.974}, {"sequence": "TATGCGCGTA", "switch fluorescence ratio": 0.986}, {"sequence": "TATGCGGCG", "switch fluorescence ratio": 0.972}]}]}
